According to PubChem BioAssay AID1345083 (National Center for Advancing Translational Sciences (NCATS), 2018):
Out of some 94,000 compounds screened, about 6,200 (6.6%) were called active. The inconclusive results got no clear call from the source; some entries with a clear call stand among them for comparison. Calls come from the whole dose curve; as a rule, active = well fitted inhibition curve with a large enough effect; inconclusive = small, poorly fitted or top-dose-only effect; inactive = flat fitted curve, though single readings scatter. Potencies of inconclusive entries are doubtful fits and often do not repeat.

Experiment: Cytotoxic Profiling in HEK 293 Cell Line of Diverse Libraries Using Quantitative High-Throughput Screening; note: nearly all actives have a fitted effect of over 60% in size
Conditions: HEK 293 viability, ATP luminescence (CellTiter-Glo), 48-72 h; activity change, negative = cytotoxicity: at 115 µM (top of the series) unless noted; series mostly up to 115 µM
Method in brief: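 Read-out: CellTiter-Glo ATP luminescence. Cells: HEK 293, 250 cells/well. Exposure: 48 or 72 hr, 37 degree Celsius.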
% is set by controls: 0 for no effect and ±100 for the full control effect; potency is the fitted concentration of half-maximal effect; tags give direction and shape of the fitted curve.

Row | Structure (SMILES) | activity change, negative = cytotoxicity | Potency | outcome
1 | O=C(NC1CCN(c2nc3ncccc3o2)C1)c1ccccc1 (stereo unspecified) | inactive: -2.91% [at 172 µM] |  | 
2 | COC(=O)C1=C(C)NC(=O)NC1c1cccs1 (stereo unspecified) | inactive: 5.08% |  | 
3 | Cc1ccc(CN2CCN(C(=O)c3ccc4c(c3)C(O)CCCCCN4C)CC2)cc1 (stereo unspecified) |  | active: 39.8 µM | 
4 | O=C1NC2(CCN(C(=O)c3ccc(C(F)(F)F)cc3)CC2)Oc2ccccc21 |  | inconclusive: 56.2 µM [inhibitor, partial curve, poor fit] | 
5 | CN(C)CCCC(=O)N1CCC2(CC1)CN([S+](C)(=O)[O-])Cc1ccccc1O2 | inactive: -0.421% |  | 
6 | CC(=O)c1c(C)nn(CCC(=O)NCc2noc(-c3ccccc3)n2)c1C | inactive: -27.1% |  | 
7 | COc1cccc(C(=O)N2C(C(=O)N3CCOCC3)COC23CCN(C(=O)CC(C)(C)C)CC3)c1 (stereo unspecified) |  | inconclusive: 35.5 µM [inhibitor, full curve, poor fit] | 
8 | O=C(CC1CCCN(c2cn[nH]c(=O)c2)C1)Nc1cccc(Cl)c1 (stereo unspecified) | inactive: -22.7% |  | 
9 | O=C1CCN(S(=O)(=O)c2ccccc2)CCCN(C(=O)CN2CCCC2=O)CCN1 |  |  | inactive
10 | Cc1ccc(Nc2ccnc(N3CCC(C(=O)NCc4ccc5c(c4)OCO5)CC3)n2)cc1 |  | inconclusive: 22.4 µM [inhibitor, full curve, poor fit] | 
11 | COCC1CN(C2CCC2)CC12CCN(C(=O)c1ccc(OC)nc1)CC2 (stereo unspecified) |  | inconclusive: 44.7 µM [inhibitor, partial curve, poor fit] | 
12 | Cc1ccccc1CN1Cc2nc(-c3cccc(C(N)=O)c3)ccc2OCC1=O |  | active: 70.8 µM | 
13 | CCOc1ccccc1NC(=O)N1C[C@@H](F)C[C@H]1C(=O)N1CCc2ccccc2C1 | inactive: -2.97% |  | 
14 | CC(=O)Oc1c(-c2ccc(NC(=O)C3CC3)cc2)c(-c2ccccc2F)nn1-c1ccccc1 | inactive: -5.68% |  | 
15 | C[S+](=O)([O-])N1Cc2ccccc2CC12CN(C(=O)c1ccc(C(F)(F)F)cc1)C2 |  | inconclusive: 89.1 µM [inhibitor, single point] | 
16 | Cc1nc(-c2ccc(Cl)cc2)n(Cc2ccccc2F)c(=O)c1CCO |  | active: 44.7 µM | 
17 | O=C(c1ccccc1OC1CN(Cc2cccc(C(F)(F)F)c2)C1)N1CCOCC1 |  | inconclusive: 79.4 µM [inhibitor, partial curve, poor fit] | 
18 | Cc1nn(-c2ccccc2)c2c1C(C(C)C)N(C1CCN(C(=O)c3ccc(C(F)(F)F)cc3)C1)C2=O (stereo unspecified) |  | inconclusive: 17.8 µM [inhibitor, full curve, poor fit] | 
19 | COc1ccccc1CNC(=O)c1cc2c(N(C)Cc3ccccc3)nc(C)cn2n1 |  | inconclusive: 31.6 µM [inhibitor, full curve] | 
20 | COCCNC(=O)[C@@H](C)C1CC[C@@]2(C)Cc3sc(CSc4ccccc4)nc3[C@@H](C)[C@@H]2[C@H]1O (stereo partly specified) |  | inconclusive: 50.1 µM [inhibitor, partial curve, poor fit] | 
21 | OC1(c2csc(CN3CCN(c4ccccn4)CC3)n2)CCN(CC2CCCCC2)CC1 |  | inconclusive: 56.2 µM [inhibitor, partial curve, poor fit] | 
22 | COc1cccc(C(=O)N2CCC(N3C[C@H](O)C[C@H]3C(=O)NC3CCCC3)CC2)c1 | inactive: -4.25% |  | 

Row | Structure (SMILES) | activity change, negative = cytotoxicity | Potency | outcome
23 | CC(C)CNC(=O)N1CCC(Oc2ncccc2C(=O)N2CCOCC2)C1 (stereo unspecified) |  | inconclusive: 89.1 µM [inhibitor, single point] | 
24 | COc1ccccc1-c1ccnc(-c2nnc(C)n2-c2ccccc2)c1 |  | inconclusive: 89.1 µM [inhibitor, partial curve] | 
25 | COCCc1noc([C@@H]2CN(Cc3ccccc3C#N)C[C@H]2CO)n1 |  |  | inactive
26 | c1coc(CN2CC(Oc3ccc(-c4noc(C5CC5)n4)cc3)C2)c1 |  | inconclusive: 89.1 µM [inhibitor, partial curve, poor fit] | 
27 | COCC(=O)Nc1nc2c(s1)C[C@@H]1[C@](C)(CO)[C@H](O)CC[C@@]1(C)[C@@H]2CC(=O)N1CCC(C)CC1 |  |  | inactive
28 | CC(C)CN1C(=O)CCc2cc(NC(=O)c3c(F)cccc3F)ccc21 |  | inconclusive: 25.1 µM [inhibitor, partial curve] | 
29 | CN1CCN(C(=O)[C@H]2C[C@@](C)(C(=O)O)N(C)[C@H]2c2ccc(Cl)cc2)CC1 | inactive: -18.2% |  | 
30 | N#Cc1cccc(-c2ccnc(N[C@H]3CO[C@H]4[C@@H]3OC[C@H]4OC(=O)Nc3cccc(C(F)(F)F)c3)n2)c1 |  | active: 28.2 µM | 
31 | CNc1ncc(C(=O)N2CCCC3(CCC(=O)N(CCOC)C3)C2)cn1 (stereo unspecified) | inactive: -2.03% |  | 
32 | O=C(NCc1nnc2ccc(-c3ccc(Cl)cc3)nn12)c1cc(F)ccc1F | inactive: -22.9% |  | 
33 | COc1ccccc1CNC(=O)C1(c2ccc(NC(=O)C3CC3)cc2)CCCCC1 | inactive: 1.68% |  | 
34 | COc1cccc(NC(=O)Cn2c(=O)c3c(n2Cc2ccccc2)CN(Cc2ccccc2)CC3)c1 |  | inconclusive: 56.2 µM [inhibitor, partial curve, poor fit] | 
35 | Cc1ccc(F)cc1S(=O)(=O)N1CCCC(Cn2c(C3CC3)nc3cccnc32)C1 (stereo unspecified) |  | inconclusive: 50.1 µM [inhibitor, partial curve, poor fit] | 
36 | COc1ccc(C(=O)N2CCC(N3C(=O)C4(CCCCC4)C3c3ccccc3)CC2)cn1 (stereo unspecified) |  | inconclusive: 50.1 µM [inhibitor, partial curve, poor fit] | 
37 | COc1ccccc1-c1cc(-c2cn[nH]c2)c2cncn2c1 |  | inconclusive: 100 µM [inhibitor, partial curve, poor fit] | 
38 | O=C(c1cccc(Cl)c1)N1CCCN(c2ccnc3ccnn23)CC1 |  | inconclusive: 50.1 µM [inhibitor, partial curve, poor fit] | 
39 | COc1ccc(OCC2CN(c3ccc(OC)cc3)C(=O)c3ccc(C)nc3O2)cc1 (stereo unspecified) |  | inconclusive: 50.1 µM [inhibitor, partial curve, poor fit] | 
40 | CN(C)C(=O)c1cn2cc(-c3cccc(C(F)(F)F)c3)sc2n1 | inactive: -23.1% [at 172 µM] |  | 
41 | Cc1noc(C)c1-c1cc2c(cc(C)n2C)c(NC2CCN(C)CC2)n1 |  | inconclusive: 89.1 µM [inhibitor, partial curve, poor fit] | 
42 | COc1cccc(N2C(=O)NC(=NC3CCCC3)C23CCCN(CC2CC2)C3)c1 (stereo unspecified) |  | inconclusive: 79.4 µM [inhibitor, partial curve, poor fit] | 
43 | CCc1noc(-c2nc(-c3ccccc3C)no2)n1 |  | inconclusive: 89.1 µM [inhibitor, single point] | 
44 | COc1ccccc1-c1cccc(CN2CCCC(C(=O)N3CCN(c4ncccn4)CC3)C2)c1 (stereo unspecified) |  | active: 15.8 µM | 

Row | Structure (SMILES) | activity change, negative = cytotoxicity | Potency | outcome
45 | C=CCN1CC2(CCC1=O)CCN(C(=O)[C@@H]1C[C@H]1c1ccccc1)CC2 | inactive: -0.979% |  | 
46 | CC(C)n1cc(CN2CCCCCNC(=O)[C@@H]3CCC[C@@H]32)c2ccccc21 |  | inconclusive: 56.2 µM [inhibitor, partial curve, poor fit] | 
47 | COC1CCCN(Cc2cn(-c3ccc(F)cc3)nc2-c2ccccc2Cl)C1 (stereo unspecified) |  | inconclusive: 44.7 µM [inhibitor, partial curve, poor fit] | 
48 | C=CCOc1c(OC)ccc2c1CN(C(C)C)C(=O)CCN2C[C@@H](O)COCc1ccccc1 |  | inconclusive: 79.4 µM [inhibitor, partial curve, poor fit] | 
49 | CCOc1ccc2c(n1)CCN(C(=O)Cc1c[nH]c3ccccc13)C2 |  | inconclusive: 44.7 µM [inhibitor, partial curve, poor fit] | 
50 | Cc1ccccc1C(=O)N1CCCC(C(=O)N2CCC(N3CCCC3=O)CC2)C1 (stereo unspecified) | inactive: -2.8% |  | 
51 | CNC(=O)c1cc(C2CC2)nc2onc(C3CCCN3C(=O)c3ccccc3F)c12 (stereo unspecified) | inactive: -15.5% |  | 
52 | CCCCc1nn(CC(=O)N2CCC(COC)C2)c(=O)n1Cc1ccccc1 (stereo unspecified) | inactive: -8.89% |  | 
53 | CC(C)OC(=O)N(C)Cc1cccc(N2CCN(C(=O)c3c(Cl)cccc3Cl)CC2)c1F |  | active: 35.5 µM | 
54 | OCCC#Cc1ccc(CN2CCC(CO)(Cc3ccccc3Cl)CC2)cc1 |  | inconclusive: 89.1 µM [inhibitor, partial curve, poor fit] | 
55 | CCOc1ccc(NC(=O)N2C[C@@H](F)C[C@H]2C(=O)N2CCc3ccccc3C2)cc1 | inactive: -11% |  | 
56 | CC(=O)Nc1ccc(CN2C(=O)OC3(CCN(Cc4ccc(C#N)cc4)CC3)C2(C)c2ccccc2)cc1 (stereo unspecified) |  | inconclusive: 44.7 µM [inhibitor, partial curve] | 
57 | O=C([C@@H]1C[C@H](F)CN1S(=O)(=O)c1cc(F)ccc1F)N1CCCCC1 | inactive: -10.2% |  | 
58 | COCc1nnc2n1CCC(NC(=O)CCc1c(C)noc1C)CC2 (stereo unspecified) | inactive: -2.53% |  | 
59 | CN(Cc1cncs1)C1CCCc2ccccc21 (stereo unspecified) |  | inconclusive: 100 µM [inhibitor, partial curve] | 
60 | Cc1cccc(C(=O)N2CCc3[nH]nc(C(=O)N(C)C)c3C2)c1 | inactive: -1.26% |  | 
61 | COc1ccc(C(CC(=O)NCCc2ccccc2)c2c[nH]c3ccccc23)cc1OC (stereo unspecified) |  | inconclusive: 70.8 µM [inhibitor, partial curve] | 
62 | O=C(NC(C(=O)N1CCCC1)C1CCN(C(=O)c2ccccc2)CC1)c1ccc(F)cc1 (stereo unspecified) | inactive: -7.4% |  | 
63 | CC(C)(C)c1coc([C@@H]2COCCN2Cc2ccc(Cl)cc2)n1 |  | inconclusive: 126 µM [inhibitor, single point] | 
64 | O=C(COc1ccccc1)N1CCC(n2cc(-c3nc(-c4ccccc4)no3)nn2)CC1 |  | inconclusive: 7.08 µM [inhibitor, full curve, poor fit] | 
65 | COc1ccccc1-c1cccc(CN2CCC(NC(=O)c3ccccc3)CC2)c1 |  | inconclusive: 39.8 µM [inhibitor, partial curve, poor fit] | 
66 | O=C(NCc1ccc(F)cc1)N1CC(Oc2ccc(-c3nc(-c4ccccc4)no3)cc2)C1 |  | inconclusive: 20 µM [inhibitor, partial curve, poor fit] | 
